Source: publication PMC9574860, “Chemical Toolkit for PARK7: Potent, Selective, and High-Throughput” (Journal of Medicinal Chemistry, 2022)
The campaign covered roughly 7,900 compounds. About 400 (5.1%) showed an effect of 50% or more. The list shows a part of the results.

target: Parkinson's disease protein 7 (PARK7/DJ1) (human, UniProt Q99497); experiment: primary screen, percent inhibition; read as competition with a fluorescent probe by fluorescence polarization; higher = more effect of the substance; conditions: 100 µM
Experimental: The screen was conducted using the conditions as described above in 1536-well plates (Corning 3724) with a reaction volume of 8 μL per well. The compound library containing 7887 covalent fragments was purchased at Enamine Ltd. and received as 100 mM DMSO stocks in 384 well LDV Echo plates (Labcyte LP-0200). Stock solutions of 0.26 μM PARK7 and 80 nM JYQ-107 were prepared. Using a Labcyte Echo550 acoustic dispenser, 8 nL of the DMSO stock solution of the library compounds was transferred from the source plates into the empty 1536-well screening plates to obtain a 100 μM final compound concentration. Next, PARK7 (6 μL, final concentration 0.2 μM) was dispensed using a Biotek MultiflowFX liquid dispenser and incubated for 2 h, followed by dispensing the probe JYQ-107 (2 μL, final concentration 20 nM). After 2 h incubation, the FP signal was recorded on a BMG Labtech PHERAstar plate reader (λex/em 480/520 nm). The relative loss of FP signal compared with reference controls was used to calculate the remaining enzyme activity.

Chain of Parkinson's disease protein 7 (PARK7/DJ1) (Q99497 whole entry, looked up, the tested form may be a part): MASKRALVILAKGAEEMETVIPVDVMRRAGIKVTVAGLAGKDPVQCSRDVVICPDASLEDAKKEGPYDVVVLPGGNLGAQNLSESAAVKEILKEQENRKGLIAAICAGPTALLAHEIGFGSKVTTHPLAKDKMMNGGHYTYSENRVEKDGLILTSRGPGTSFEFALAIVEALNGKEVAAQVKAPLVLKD

| Compound | Inhibition % [%] |
| --- | --- |
| O=c1c2ccccc2nc(S)n1CC1CCCO1 (stereo not shown) | 0.968 |
| CCN(CC)C(=O)Oc1cccc2ccc(C)nc12.Cl | 7.91 |
| OB(O)c1c(F)ccc2c1OCO2 | 11.6 |
| Cl.Cn1cc(CCCCl)cn1 | 6.06 |
| N#CCCN(C(=O)CCl)c1cccc(Cl)c1 | 29.3 |
| CC1(C)OB(c2cccc(Cn3ccnc3)c2)OC1(C)C.Cl | 4.68 |
| COc1ccccc1-c1ccc(C=C(C#N)C(N)=O)cc1 | 1.36 |
| Cc1nc(SC2CC(C)OC2=O)nc(C)c1C (stereo not shown) | 3.23 |
| CCOc1cc(C)c(C)cc1S(=O)(=O)n1cccn1 | 1.55 |
| ClCCc1ncc(-c2ccccc2)o1 | 4.81 |
| C=CC(=O)Nc1n[nH]c2cc(OC)ccc12 | 4.97 |
| O=C(CCc1ccccc1)NC1CCN(C(=O)CCl)CC1 | 17.8 |
| N#CC(=Cc1cccc(O)c1)C(=O)NCc1ccco1 | 15.6 |
| N#Cc1ccc(NCC(O)c2ccc(Cl)c(F)c2)cn1 (stereo not shown) | -3.59 |
| Cc1ccc(B2OC(C)(C)C(C)(C)O2)c(C#N)c1 | -0.714 |
| CC1CN(C(=O)CCN2CCSC2=O)CCO1 (stereo not shown) | -3.2 |
| CC(C)(C)c1ccc(C(=O)Cn2cnc(C#N)n2)cc1 | 4.71 |
| O=S(=O)(C=Cc1ccccc1)N1CCc2sccc2C1 | 11.8 |
| Sc1cnc2ccccc2n1 | 6.61 |
| CCNC(=O)C(C#N)=Cc1ccc(OC(F)F)cc1 | 2.17 |
| CCc1ccc(C=CS(=O)(=O)Nc2onc(C)c2C)cc1 | 4.3 |
| C=CC(=O)N1CCN(C(=O)C(C)(C)C)CC1 | 7.52 |
| C#Cc1cccc(NC(=O)NC(=O)CCl)c1 | 6.09 |
| CC1(C)OB(c2ccc3c(c2)C(=O)C(=O)N3)OC1(C)C | 17 |
| CN(CC1CCCCC1)C(=O)CCl | 50 |
| C#CC(=O)Nc1cccc(C(=O)O)c1C | 8 |
| CCn1c(S)nc2ncccc2c1=O | 2.8 |

| Compound | Inhibition % [%] |
| --- | --- |
| Cc1n[nH]c(C)c1C=C(C#N)C(=O)c1ccccc1F | 9.5 |
| CN(C)Cc1cccc(SC(=O)N(C)C)c1 | 5.21 |
| O=C(N1CCC2CCCCC2C1)n1ccnc1 (stereo not shown) | 11.2 |
| Cn1c(S)nc2cc(C(=O)O)ccc2c1=O | 4.06 |
| O=S(=O)(F)c1ccc(Cl)c(S(=O)(=O)F)c1 | -3.28 |
| N#Cc1ccc(NC2CCCCC2O)cn1 (stereo not shown) | 5.62 |
| CC(C)Oc1cccnc1C#N | 4.58 |
| COc1ccc(C#N)nc1 | 6.65 |
| COc1ccc(N(C#N)CCCF)cc1 | 1.89 |
| Cc1ccc(-n2cnc(Cl)c2C#N)cc1 | 6.79 |
| CCc1nccn1S(=O)(=O)c1cc(C)ccc1OC | 7.61 |
| N#Cc1cccc(C(F)(F)F)n1 | 8.35 |
| CC1CC(Sc2cnccn2)C(=O)O1 (stereo not shown) | 48.8 |
| O=C(c1cccnc1S)N1CCOC(C2CCCO2)C1 (stereo not shown) | 2.52 |
| CC(C)(C)OC(=O)N1CCOc2cc(B3OC(C)(C)C(C)(C)O3)ccc2C1 | 3.67 |
| O=C1NC(c2cccs2)C12CCC2 (stereo not shown) | 5.83 |
| CC1(c2ccc(B3OC(C)(C)C(C)(C)O3)cc2)CC1 | 2.29 |
| CCc1nccn1S(=O)(=O)c1ccc(Cl)c(C)c1 | 1.29 |
| C=CC(=O)N1CCC(=C(F)F)CC1 | 1.76 |
| Cc1cc(Cn2c(-c3ccccc3C)noc2=O)on1 | 7.43 |
| Cc1nc(S(=O)(=O)Oc2ccccc2F)cn1C | 6.3 |
| CN(C)c1ccnc(C#N)c1 | 2.64 |
| O=C(CCl)NCCOc1ccccc1 | 14 |
| Cn1c(=O)ccn(CC(=O)Nc2cccc(S(=O)(=O)F)c2)c1=O | 99.6 |
| N#Cc1ccc(NCCNC(=O)c2ccc(Cl)cc2)cn1 | 5.08 |
| Cc1nn(C)c(Cl)c1C=CC(=O)N1CCC(C)(C(=O)O)C1 (stereo not shown) | 7.72 |
| N#Cc1c(N)cc(N)nc1S | 8.16 |

| Compound | Inhibition % [%] |
| --- | --- |
| O=C(CN1CCCCC1C1OCCO1)N1CCCCC1 (stereo not shown) | 14.4 |
| CCOc1ccc(CN(C)C(=O)CCl)cc1 | 67.6 |
| Cc1nc(Sc2nccnc2C#N)sc1C | 2.84 |
| C=CC(=O)N1CCCc2[nH]c3ccc(F)cc3c2C1 | 71.3 |
| CC1CN(C(=O)CN2CCSC2=O)CC(C)O1 (stereo not shown) | 3.33 |
| Cn1ncnc1NS(=O)(=O)c1ccc(S(=O)(=O)F)cc1 | 5.71 |
| Cn1nccc1C=CC(=O)N1CCCC(C(=O)O)C1 (stereo not shown) | 0.394 |
| CC(C)(C)c1ccc(S(=O)(=O)n2cccn2)cc1 | 9.92 |
| CS(=O)(=O)OCC1CCCC1 | -2.46 |
| O=C(CCl)NCc1ccc(C(=O)N2CCCC2)cc1 | 4.96 |
| C=CC(=O)Nc1ccc2c(c1)CCC(=O)N2 | 9.43 |
| ClCCCOc1ccccc1 | 9.16 |
| O=C(O)CCNS(=O)(=O)C=Cc1ccccc1 | 6.07 |
| C=CC(=O)N1CCN(c2cccc(F)c2)C(=O)C1 | 14.2 |
| CC(C)(C)C(=O)Cn1cnc(C#N)n1 | 8.71 |
| O=C(CCl)Nc1ccccc1C(F)(F)F | 11.7 |
| C=CC(=O)N1CCC(c2cc3ccccc3[nH]2)C1 (stereo not shown) | 13.2 |
| C=CC(=O)Nc1ccnc(OC2CCOC2)c1 (stereo not shown) | 6.94 |
| CC(Cl)C1CC(c2ccccc2)=NO1 (stereo not shown) | 6.06 |
| CN(C)C(=O)Oc1cccc(NC(=O)N2CCOCC2)c1 | 9.53 |
| O=C1OCCC1N1CCOC(Cn2cccn2)C1 (stereo not shown) | 3.69 |
| C=CC(=O)N(C)C1C(C)CCCC1C (stereo not shown) | 5.45 |
| Cc1cc(NC(=O)CCN(C#N)c2ccccc2)no1 | 4.15 |
| N#Cc1ncccc1S | 19.2 |
| CCN1CCN(c2ccc(NC(=O)CCl)cc2)CC1.Cl | 37.8 |
